# Some entries of the source have several records that differ or are many. Only these are listed. The source may hold further records. The records of an entry read as repeated measurements on other runs, samples or individuals; a mean can stand among them.
# Biological target: T1, human GPR119 (Homo sapiens, UniProt Q8TDV5)
# T1 construct: host or cells: HEK293-CRE beta-lactamase cells
# T1 sequence (Q8TDV5 1-335): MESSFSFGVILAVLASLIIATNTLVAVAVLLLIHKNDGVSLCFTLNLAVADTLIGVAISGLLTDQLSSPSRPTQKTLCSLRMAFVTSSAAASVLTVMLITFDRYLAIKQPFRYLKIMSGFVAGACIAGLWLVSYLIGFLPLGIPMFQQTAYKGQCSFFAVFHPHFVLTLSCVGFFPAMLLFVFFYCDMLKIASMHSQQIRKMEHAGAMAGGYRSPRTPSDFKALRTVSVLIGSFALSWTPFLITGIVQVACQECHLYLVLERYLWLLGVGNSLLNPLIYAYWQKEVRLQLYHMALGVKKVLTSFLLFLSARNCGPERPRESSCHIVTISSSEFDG
# Test: cAMP functional assay (HTRF, hGPR119 HEK-CRE beta-lactamase cells)
# Assay type: cell-based
# Settings: 30 minutes, one line per run
# Experimental: GPR119 agonist activity was also determined with a cell-based assay utilizing an HTRF (Homogeneous Time-Resolved Fluorescence) cAMP detection kit (cAMP dynamic 2 Assay Kit; Cis Bio cat #62AM4PEC) that measures cAMP levels in the cell. The method is a competitive immunoassay between native cAMP produced by the cells and the cAMP labeled with the dye d2. The tracer binding is visualized by a Mab anti-cAMP labeled with Cryptate. The specific signal (i.e. energy transfer) is inversely proportional to the concentration of cAMP in either standard or sample. […]
# Varying concentrations of each compound to be tested were diluted in assay buffer containing 3-isobutyl-1-methylxanthin (IBMX; Sigma cat #15879) and added to the assay plate wells in a volume of 2 microL (final IBMX concentration was 400 microM and final DMSO concentration was 0.58%). […] The plates were then incubated at room temperature and after 60 minutes, changes in the HTRF signal were read with an Envision 2104 multilabel plate reader using excitation of 330 nm and emissions of 615 and 665 nm. Raw data were converted to nM cAMP by interpolation from a cAMP standard curve (as described in the manufacturer's assay protocol) and EC50 determinations were made from an agonist-response curves analyzed with a curve fitting program using a 4-paramter logistic dose response equation.
compound,measurement,value
"CC(C)OC(=O)N1CCC(Oc2ncnc(N3Cc4cnn(C)c4C3)c2C#N)CC1 [Example 3, Isopropyyl 4-{[5-cyano-6-(1-methyl-4,6-dihydropyrrolo[3,4-c]pyrazol-5(1H)-yl)pyrimidin-4-yl]oxy}piperidine-1-carboxylate]",EC50,"145 nM, 153 nM, > 10 µM [lines of one column]"

# Source: patent US20130072427A1, “GPR 119 MODULATORS” (Pfizer Inc., priority 2009, published 2013)
